# Measurements taken from PubChem BioAssay AID886 (National Center for Advancing Translational Sciences (NCATS), 2007).
# About 2,500 (3.4%) of roughly 73,000 compounds were called active. Inconclusive results, whose numbers are uncertain, are shown with a selection of clear calls. Calls follow the shape of the dose curve; as a rule, active = well fitted inhibition curve with a large enough effect; inconclusive = small, poorly fitted or top-dose-only effect; inactive = no such curve, though single readings can be large or run the other way. Potencies beside an inconclusive call are fits to weak or partial responses and may not hold up.
# Target: 3-hydroxyacyl-CoA dehydrogenase type-2 (Homo sapiens) (UniProt Q99714)
# UniProt Q99714, sequence (Q99714 whole entry, looked up): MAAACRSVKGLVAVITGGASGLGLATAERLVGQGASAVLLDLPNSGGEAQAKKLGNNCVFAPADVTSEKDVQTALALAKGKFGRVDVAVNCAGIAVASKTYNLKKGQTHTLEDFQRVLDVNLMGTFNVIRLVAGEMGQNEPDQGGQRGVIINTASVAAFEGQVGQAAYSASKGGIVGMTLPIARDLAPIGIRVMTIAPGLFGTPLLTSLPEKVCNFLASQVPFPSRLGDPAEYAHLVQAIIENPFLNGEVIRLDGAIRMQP
# UniProt Q99714, sequence (Q99714 whole entry, looked up): as above
# Assay: qHTS Assay for Inhibitors of HADH2 (Hydroxyacyl-Coenzyme A Dehydrogenase, Type II); also: nearly all actives have a fitted effect of over 60% in size
# Details: recombinant HADH2, NADH fluorescence, beta-hydroxybutyryl-CoA; activity change, negative = inhibition: at 57.1 µM (top of the series)
# Summary of the method: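 20 nM HADH2 + cpd, 15 min RT; add 1 mM NAD+/90 uM beta-hydroxybutyryl-CoA; kinetic fluorescence 360/450 nm, 4 min. Tris-HCl pH 9.0, 0.01% Tween-20.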
# % is scaled to controls: 0 for no effect and ±100 for the full control effect; potency is read from the fitted curve at half-maximal effect; tags tell the direction and shape of the fitted curve.
Structure (SMILES),Potency,"activity change, negative = inhibition"
[C-]#[N+]/C(C#N)=C\c1cc(C(C)(C)C)c(O)c(C(C)(C)C)c1,"inconclusive: 10 µM [inhibitor, partial curve]",
CCOc1ccc(S(=O)(=O)Nc2ccccc2C(=O)NCC2CCCO2)cc1 (stereo not given),active: 20 µM,
Cc1cccc2cc(CN(CCCO)C(=O)Nc3cccc(Cl)c3)c(=O)[nH]c12,inactive,
CC1(C)CC(=O)C(C(C2=C(O)CC(C)(C)CC2=O)c2cccnc2)C(=O)C1 (stereo not given),"inconclusive: 12.6 µM [inhibitor, partial curve]",
O=C(Nc1cccc(Cl)c1)N(CCCN1CCOCC1)Cc1ccccc1F,"inconclusive: 0.631 µM [inhibitor, single point]",
CCCCCSc1nc2c(c(=O)[nH]c(=O)n2C)n1C(C)C,inactive,
CC(C)[C@H](Nc1ncnc2nc[nH]c12)C(=O)O,,inactive: -1.65% [at 11.4 µM]
COc1ccc(COC(=O)N/N=C2/C[C@@H](O)[C@@H](O)[C@@H]3[C@@H]4C(=O)N(C5CCCCC5)C(=O)[C@H]4CC[C@@H]23)cc1,,inactive: 12.1% [at 11.4 µM]
Cc1nc(N2CCOCC2)c2nc(-c3ccccc3)n(CCCN3CCOCC3)c2n1,"inconclusive: 25.1 µM [inhibitor, single point]",
Cc1cnc(CNc2ncncc2-c2cccc(NS(C)(=O)=O)c2)cn1,"inconclusive: 31.6 µM [inhibitor, single point]",
CO[C@@H]1COC(=O)[C@@H](CCSC)NC(=O)C/C=C\[C@@H](C)COC(=O)CCC[C@H]1C,,inactive: 2.78% [at 11.4 µM]
Cn1c(O)c(N=N/C(=N/c2ccccn2)c2ccccn2)c2cc(Br)ccc21,active: 1.58 µM,
COc1ccc(N2CCN(Cc3nc4ccccc4c(=O)[nH]3)CC2)cc1,"inconclusive: 3.16 µM [inhibitor, single point]",
CN(C)c1cccc(C(=O)Nc2cccc(F)c2)c1,"inconclusive: 3.16 µM [inhibitor, full curve]",
Cc1c(NC(=O)C(C)Sc2nnc(-c3ccccc3)o2)c(=O)n(-c2ccccc2)n1C (stereo not given),inactive,
COc1ccc(-c2[nH]ncc2-c2ccc3c(c2)OCCO3)c(O)c1,inactive,
Cc1ccc(S(=O)(=O)NCc2nc3ccccc3c(=O)n2N)cc1,inactive,
COc1ccc2cc3cc(C(=O)NCC4CCCO4)oc3nc2c1 (stereo not given),active: 3.16 µM,
CCOc1c(OC)cc(C2C(C#N)=C(N)Oc3n[nH]c(-c4ccncc4)c32)cc1OC (stereo not given),active: 10 µM,
CNC(=O)N(O)C1N(C)C(=O)N(CC(=O)OC)C1(C)C (stereo not given),inactive,
CCCn1c(-c2ccc(F)cc2)nc2c(NC3CCN(Cc4ccccc4)CC3)nc(C)nc21,"inconclusive: 39.8 µM [inhibitor, single point]",
Cc1cccn2c(=O)c3cc(C(=O)NCC4CCCO4)c(=N)n(Cc4cccnc4)c3nc12 (stereo not given),inactive,
CCOC(=O)c1oc2c(CN3CCN(C)CC3)c(O)ccc2c(=O)c1-c1ccccc1OC,inactive,
N#Cc1ccsc1NC(=O)COc1ccc(-c2nnco2)cc1,"inconclusive: 31.6 µM [inhibitor, single point]",
Cc1cc(C)n2c(Br)c(CSc3nc4ccccc4o3)nc2n1,"inconclusive: 39.8 µM [inhibitor, single point]",

Structure (SMILES),Potency,"activity change, negative = inhibition"
Cc1cccc(S(=O)(=O)c2c(N)n(/N=C/c3cccnc3)c3nc4ccccc4nc23)c1,active: 1.26 µM,
COc1ccc(N(Cc2cc3cc(OC)ccc3[nH]c2=O)C(=O)C2CCCO2)cc1 (stereo not given),"inconclusive: 39.8 µM [inhibitor, single point]",
COc1ccc(CCC(=O)NCc2cnn(C)c2)cc1,active: 31.6 µM,
N[C@@H](Cc1ccnnc1)C(=O)O,"inconclusive: 0.199 µM [inhibitor, full curve]",
CCOC(=O)C1=C(CS(=O)(=O)c2ccc(F)c(C)c2)NC(=O)NC1c1ccc(O)c(O)c1 (stereo not given),"inconclusive: 3.98 µM [inhibitor, full curve]",
CCOCCn1c(CN2CCC(C)CC2)nc2c1c(=O)n(C)c(=O)n2C,"inconclusive: 10 µM [inhibitor, partial curve]",
CC1CCC/C(=C\Nc2ccc3c(c2)OCO3)C1=O (stereo not given),"inconclusive: 25.1 µM [inhibitor, single point]",
CC(C)Oc1ccc(NC(=O)C2CCCNC2=O)cc1 (stereo not given),inactive,
Cc1ccc2cc3cc(C(=O)N4CCCCCC4)oc3nc2c1,"inconclusive: 25.1 µM [inhibitor, single point]",
CCCCNC(=O)CC1Nc2ccccc2NC1=O (stereo not given),"inconclusive: 39.8 µM [inhibitor, single point]",
C=CCc1cccc2cc(C(=O)N3CCN(C(=O)OCC)CC3)c(=O)oc12,"inconclusive: 15.8 µM [inhibitor, partial curve]",
COC(=O)c1cc(Br)ccc1OC(=O)c1cccnc1,inactive,
CCC1Oc2ccccc2N(CC(=O)NCCCN2CCCCC2C)C1=O (stereo not given),inactive,
Cc1noc(C)c1C(=O)N1CCC2(CCN(Cc3ccncc3)CC2)CC1,inactive,
Cn1cc(-c2nc3cnc(N4CCNCC4)nc3n(C3CC3)c2=O)c2ccccc21,inactive,
Nc1nc2c(s1)CCc1c-2cnn1-c1ccccc1,active: 1.26 µM,
COc1ccc(S(=O)(=O)n2nc(OC(=O)c3ccccc3)cc2N)cc1,active: 15.8 µM,
O=C(Nc1ccc2nsnc2c1)c1ccc2c(c1)OCO2,"inconclusive: 3.16 µM [inhibitor, single point]",
CCOc1ccc(Cn2nnc(C(=O)NCc3ccc(OC)cc3)c2N)cc1,inactive,
Cc1csc2nc3ccccc3c(=O)n12,"inconclusive: 31.6 µM [inhibitor, single point]",
COCCN1C=C(C(=O)OC)C(c2ccc(OC)c(OC)c2)C(C(=O)OC)=C1,"inconclusive: 39.8 µM [inhibitor, single point]",
CSc1cc(/C=N/O)c(SC)s1,"inconclusive: 31.6 µM [inhibitor, single point]",
CN(C)C(=O)COc1ccc2ccc(=O)oc2c1,"inconclusive: 39.8 µM [inhibitor, single point]",
N#C/C(=C\c1ccc(O)c(O)c1)C(=O)NCCCCc1ccccc1,"inconclusive: 31.6 µM [inhibitor, partial curve]",
CCCCOC(=O)c1cc(=O)[nH]c2ccccc12,inactive,

Structure (SMILES),Potency,"activity change, negative = inhibition"
Clc1ccccc1-c1nnc2sc(-c3ccc4c(c3)OCO4)nn12,active: 1.26 µM,
Cn1c(=O)c2c(nc(/C=C\c3cccc(Cl)c3)n2C)n(C)c1=O,active: 3.98 µM,
COc1cc(C2c3c(oc4ccccc4c3=O)C(=O)N2Cc2ccncc2)ccc1O (stereo not given),"inconclusive: 39.8 µM [inhibitor, single point]",
COc1ccc(S(=O)(=O)N2CCC(C(=O)Nc3ccccc3C)CC2)c2cccnc12,"inconclusive: 39.8 µM [inhibitor, single point]",
O=C(NCc1ccccn1)C(C(=O)c1ccc(F)cc1)n1ccccc1=O (stereo not given),inactive,
CCOC(=O)C1=C(C)NC(SCC(N)=O)=C(C#N)C1c1ccncc1 (stereo not given),inactive,
CCOC(=O)C1CCN(C(=O)Cc2cccs2)CC1,"inconclusive: 25.1 µM [inhibitor, single point]",
CCOC(=O)C(NC(C)=O)(Nc1ccc(S(=O)(=O)Nc2nccs2)cc1)C(F)(F)F (stereo not given),"inconclusive: 7.94 µM [inhibitor, single point]",
NS(=O)(=O)c1ccc(N=Nc2nc3[nH]cnc(=S)c3[nH]2)cc1,"inconclusive: 3.98 µM [inhibitor, single point]",
CCOC(=O)c1c(NC(=O)C2CCN(S(=O)(=O)c3cccs3)CC2)sc(C)c1C,"inconclusive: 31.6 µM [inhibitor, single point]",
Nc1ncn(C(=O)c2ccco2)n1,"inconclusive: 31.6 µM [inhibitor, single point]",
O=C(CSc1cccc(C(F)(F)F)c1)NC(=O)NCc1ccco1,"inconclusive: 39.8 µM [inhibitor, single point]",
COc1ccc(-c2nnc(NC(=O)c3ccc(S(=O)(=O)N4CCCc5ccccc54)cc3)o2)cc1,active: 20 µM,
Cc1cc(C(=O)CSc2nnc(-c3ccccc3)n2-c2ccccc2)c(C)n1-c1ncn[nH]1,"inconclusive: 39.8 µM [inhibitor, single point]",
CN(C)Cc1cc(CCNC(=O)c2ccc(Cl)cc2)ccc1O,inactive,
CCN(CC)S(=O)(=O)c1ccc2c(c1)c(=O)c(C(=O)NCCN(C)CCc1ccccc1)cn2C,inactive,
CCCCC[C@H](O)c1cccc(OCc2ccc3ccccc3n2)c1,inactive,
CCOC(=O)C1=C(C)Nc2nc(C)nn2C1c1ccc(OC)c(OC)c1 (stereo not given),inactive,
NNC(=O)c1ccc(OCc2nc3ccccc3[nH]2)cc1,,inactive: 0.519% [at 11.4 µM]
Cc1noc(NS(=O)(=O)c2cccc3c(N(C)C)cccc23)c1C,inactive,
O=C(CSc1ccc2nnc(-c3ccccn3)n2n1)NCC1CCCO1 (stereo not given),inactive,
COc1ccc(C(=O)CCC(=O)N2CCN(c3ccc(N4CCOCC4)nn3)CC2)cc1,"inconclusive: 39.8 µM [inhibitor, single point]",
COc1ccc(Cn2c(C3CC3)nc3ccc(NC(=O)c4ccco4)cc3c2=O)cc1,"inconclusive: 39.8 µM [inhibitor, single point]",
CO[C@H]1COC(=O)[C@H]2CCCN2C(=O)C/C=C\[C@@H](C)[C@H](OC)COC(=O)[C@@H](OCc2ccccc2)/C=C\[C@@H]1C,,inactive: 7.84% [at 11.4 µM]
CNc1nc(-c2ccc(C(=O)N(C)C)cc2)nc2ccccc12,"inconclusive: 31.6 µM [inhibitor, single point]",
